Laboratory results: PubChem BioAssay AID1963576 (National Center for Advancing Translational Sciences (NCATS), 2024)
Hit rate of the full screen: of about 46,000 compounds, about 60 (0.1%) were called active. Inconclusive results (about 3%) are left out. Calls come from the whole dose curve; as a rule, active = well fitted inhibition curve with a large enough effect; inconclusive = small, poorly fitted or top-dose-only effect; inactive = no such curve, though single readings can be large or run the other way. Some of the results follow.

Assay: Primary qHTS assay for Inhibitors of ovarian cancer metastasis using an organotypic tumor microenvironment (TME) model.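 For activity change, negative = inhibition: plate controls were DMSO wells for no effect and tomatine positive control wells for full effect.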 Note: nearly all actives have a fitted effect of over 65% in size.
Details: SKOV3ip1-GFP adhesion/invasion on 3D omental model, fluorescence; series mostly up to 45.8 µM; activity change, negative = inhibition: at the top concentration
Procedure, shortened: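 qHTS, 4-pt dose (0.36-46 umol/L); SKOV3ip1-GFP, 1,200 cells/well, no FBS; primary omental fibroblast/mesothelial co-culture 48 h pre-grown; 2 h RT + 16 h 37 C; PBS wash, 4% PFA; GFP count 488/509 nm.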

Activity change, negative = inhibition, inactive:
Cc1cccn2c(=O)cc(COc3ccc(NC(=O)COc4ccc(F)cc4)cc3)nc12 6.64%
COc1ccc2c(c1)c1c(c(=O)n(Cc3ccccc3)c(=O)n1CC(=O)Nc1ccccc1F)n2C 1.38%
Cc1ccc(OC(=O)CSc2nnc(-c3ccc4c(c3)OCO4)o2)c(C)c1 30%
COc1cccc(-c2nc3c(c(SCC(=O)Nc4cccc(C)c4C)n2)Cc2c(CO)cnc(C)c2O3)c1 10.4%
Cc1ccc(C(=O)c2sc(Nc3ccc(F)cc3)c(C#N)c2N)cc1 -3.18%
COc1cccc(NC(=O)CN2C=NS(=O)(=O)c3ccccc32)c1 2.98%
O=C(O)CCc1ccc(-c2ccc(Br)cc2)n1-c1ccccc1O -18.8%
COc1ccc(-c2nc3sc(CCNC(=O)C(C)(C)C)c(C)n3n2)cc1 -8.64%
CCOCCCNC(=O)c1ccc(-c2nc(CS(=O)(=O)c3ccccc3)c(C)o2)cc1 9.53%
CNC(=O)C1CCCN(c2nnc(C)c3c(C)n(-c4ccccc4)nc23)C1 (stereo unspecified) -2.64%
CCOc1cccc2sc(N(Cc3cccnc3)C(C)=O)nc12 2.08%
O=C(Nc1ccc(F)c(Cl)c1)c1cc(S(=O)(=O)NCc2ccc3c(c2)OCO3)ccc1F 1.92%
Cc1cc2nc(-c3ccc(NC(=O)c4ccc(OCC(C)C)cc4)cc3)oc2cc1C 3.56%
CC(C)Cc1nn2cc(-c3cccc(Br)c3)nc2s1 36.1%
CCOc1ccc(N2CC(c3nc4ccccc4n3CCOc3ccc(OC)cc3)CC2=O)cc1 (stereo unspecified) -25.5%
CCOc1ccc2nc(N3CCCC(C(=O)NCCc4ccc(OC)cc4OC)C3)sc2c1 (stereo unspecified) -1.7%
CCCCN(CC)CCNC(=O)Cn1cnc2sc(C)c(S(=O)(=O)N3CCN(c4ccccc4OC)CC3)c2c1=O 2.27%
O=C(NCCc1ccccc1)c1ccc(CSc2nc3cccnc3n2Cc2ccccc2)cc1 5.13%
CC(NC(=O)CCc1cn(Cc2ccccc2Cl)c2ccccc12)c1ccccc1 (stereo unspecified) 9.34%
CCc1ccccc1NC(=O)Cn1nnc(C(=O)NCc2ccco2)c1N -2.9%
CCOC(=O)c1nnc2c(-c3ccc(Cl)cc3)c(C)nn2c1N 4.44%
O=C(CCS(=O)(=O)c1ccccc1)N(Cc1cccnc1)c1nc2c(F)cccc2s1 -3.09%
Cc1ccc(-c2nc(CS(=O)(=O)CC(=O)NC(C)CCc3ccccc3)c(C)o2)cc1 (stereo unspecified) 9.04%
Cc1c(NC(=O)Nc2cccc(C(F)(F)F)c2)sc2nc3n(c(=O)c12)CCC(C)CC3 (stereo unspecified) -19.1%
COc1ccc(/C=C/c2nc(C#N)c(N3CCC(C(N)=O)CC3)o2)cc1OC -2.32%
COCCN1C(=O)N(c2cccc(OC)c2)C(=O)C1CC(=O)Nc1ccccc1 (stereo unspecified) -1.25%
CCCCc1nn2c(=O)cc(COC(=O)c3cccc(NC(=O)c4cccs4)c3)nc2s1 6.58%
COc1ccc(OC)c(CNS(=O)(=O)c2cc(-c3onc(C)c3C)ccc2C)c1 -0.955%
CCN(CC)C(=O)c1sc2c(c1C)c(=O)n(-c1ccc(C)c(C)c1)c(=O)n2CC(=O)Nc1ccc(OC)cc1OC -1.5%
CN1C(=O)Cc2cc(S(=O)(=O)CCC(=O)Nc3ccc(Cl)cc3)ccc21 -1.64%
COc1ccc(CCNC(=O)c2cnn(-c3cccc(C)c3)c2C2CCNCC2)cc1OC 9.68%
CN(C)CCC=C1c2ccccc2COc2ccc(CC(=O)O)cc21 0.933%
CCOc1ccc2c(c1)c(=O)c(C(=O)c1ccccc1)cn2Cc1ccccc1F 2.82%
CC(=O)c1ccc(NC(=O)c2cc3c([nH]c2=O)CC(c2ccccc2)CC3=O)cc1 (stereo unspecified) -15.4%
Cc1ccc(S(=O)(=O)c2[nH]c(-c3ccccc3)nc2SC(C)C(=O)O)cc1 (stereo unspecified) 1.97%
COc1cc2ncnc(Nc3cccc(Br)c3)c2cc1OC -17.3%
COc1ccc(N2CCN(CCCNC(=O)c3nnc(Cc4ccccc4Cl)o3)CC2)cc1 2.58%
Cc1cc(C)n2c(Nc3ccc4c(c3)OCCO4)c(-c3ccccc3)nc2n1 -9.68%
COc1ccc(CNC(=O)C2CCN(C(=O)c3cnn(-c4ccccc4)c3-n3cccc3)CC2)cc1 5.74%
Cc1ccc(NC(=O)CSc2nnc(-c3cc4occc4n3C)n2-c2ccccc2C)c(C)c1 -26.6%
Oc1c(Cl)cc(Cl)c2cccnc12 0.603%
COc1ccc(-n2c(SC)nc3sc4c(c3c2=O)CCN(C(C)=O)C4)cc1 8.36%
FC(F)(F)c1cccc(N2CCN(c3nc4ccccc4n4cnnc34)CC2)c1 4.92%
CCS(=O)(=O)N1CCc2cc(C(=O)NC(C)c3ccccc3)ccc21 (stereo unspecified) -4.63%
CC(C)Oc1ccc(CNC(=O)CN2C(=O)c3cccnc3Oc3ccc(Cl)cc32)cc1 16.8%
O=c1c2sc3ccccc3c2n(Cc2cccc(C(F)(F)F)c2)c(=O)n1-c1ccccc1 9.54%
COC(=O)c1ccccc1NC(=O)CSc1n[nH]c(C)n1 -3.09%
Cc1ccn2c(=O)cc(COc3ccc(NC(=O)C(C)(C)C)cc3)nc2c1 -6.64%
CCOC(=O)c1ccc(CN(Cc2ccc(F)cc2)S(=O)(=O)c2ccc(F)c(C(=O)Nc3ccccc3C(F)(F)F)c2)cc1 -5.68%
Cn1c2c(c(=O)n(C)c1=O)C(c1ccccc1C(F)(F)F)CC(=O)N2 (stereo unspecified) 2.12%
CC(C)(CC(=O)NCc1ccc(Cl)cc1Cl)CC1=NS(=O)(=O)c2ccccc2N1 -16.3%
CCCCCn1c(=N)c(S(=O)(=O)c2ccc(C)cc2)cc2c(=O)n3cc(C)ccc3nc21 3.35%
Cn1c(COc2ccccc2C(C)(C)C)nc2ccccc21 2.07%
COc1cc(Cl)c(C)cc1NC(=O)C1CCCN(c2ncnc3onc(-c4ccc(F)cc4)c23)C1 (stereo unspecified) 0.487%
CCc1ccccc1N(CC)C(=O)C(=O)Nc1ccc2nc3n(c(=O)c2c1)CCCCC3 2.76%
Cc1ccc(C(=O)N2CCN(c3cccc(Cl)c3)CC2)cc1-n1c(C)nc2cccnc21 27.7%
CCOc1ccccc1NC(=O)CN1C(=O)CC(c2ccco2)Sc2ccccc21 (stereo unspecified) 2.18%
Cc1cc(C)cc(C(=O)N(Cc2nc(-c3ccc(Cl)cc3)no2)C(C)C)c1 -28.3%
Cc1cc(NC(=O)CCCn2c(C)c3cnn(-c4ccccc4)c(=O)c3c2C)ccc1Br 16.9%
O=S(=O)(c1ccc2ccccc2c1)n1nc(-c2ccco2)nc1NCc1ccc(F)cc1 -4.75%
COCCCNC(=O)c1c(NC(=O)c2nc(S(C)(=O)=O)ncc2Cl)sc2c1CCCC2 -3.45%
Cc1ccc(C(=O)Nc2ccc(-c3nc4ccccc4s3)c(O)c2)c(C)c1 -7.17%
COC(=O)c1ccc(OCC(O)Cn2cnc3cc(C)c(C)cc32)cc1 (stereo unspecified) 2.45%
CCN(C(=O)CSc1ncc(S(=O)(=O)c2ccc(C)c(Cl)c2)c(=O)[nH]1)c1cccc(C)c1 7.42%
COCCNC(=O)C(=O)NCC(c1ccc2c(c1)OCO2)N1CCOCC1 (stereo unspecified) -21.8%
Cc1ccc(CNC(=O)c2cnc(N(C)C)nc2)cc1 -5.67%
CCCCN(C)CCNC(=O)c1cc(=O)[nH]c2ccc(S(=O)(=O)N3CCCCCC3)cc12 -2.14%
Cc1ccc(NC(=O)CS(=O)(=O)c2nc(-c3ccc(C)cc3)cn2-c2ccc(C)cc2)cc1 5.23%
COc1ccc(-c2nc(C(=O)Nc3cccc(C(C)=O)c3)nn2-c2ccc(Cl)cc2)cc1 5.24%
COc1ccc(NC(=O)c2oc3ccccc3c2NC(=O)c2cc(=O)c3c(C)cc(C)cc3o2)cc1 -0.148%
Cc1ccc(NC(=O)c2ncn(-c3ccccc3)n2)cc1Cl -5.15%
Cc1nc(-n2nc(C)c(Cc3ccccc3Cl)c2C)sc1C(=O)N1CCCCC1C (stereo unspecified) 0.0491%
COc1ccc(OC)c(Nc2nc3ccccc3n3c(C)nnc23)c1 1.62%
C#CC(C)(CC)NC(=O)Cn1nnc(-c2ccc(OCc3ccccc3F)cc2)n1 (stereo unspecified) 0.821%
O=C(Nc1cc(-c2nc3cc(Cl)ccc3o2)ccc1Cl)c1cccs1 61.9%
O=C(CSc1nnc(CNC(=O)c2c(F)cccc2Cl)o1)Nc1ccccc1F 3.64%

outcome, inactive:
CCOC(=O)c1cnc(NCc2ccc(OC)cc2OC)c2ccccc12
CCOc1ccccc1NC(=O)N1CC(C)Oc2ccc(Cl)cc21 (stereo unspecified)
Cc1cccc(CCn2c(=O)c3ccccc3n(Cc3ccccc3C)c2=O)c1
CCOC(=O)C1CCN(c2cc3c(cc2NC(=O)c2ccccc2Cl)n(C)c(=O)n3C)CC1
O=C(NCCO)C(=O)NCC(c1ccc2c(c1)OCO2)N1CCOCC1 (stereo unspecified)
CC(C)CN(c1ccccc1)S(=O)(=O)c1nnc(NC(=O)C2CCCCC2)s1
O=C(NCc1ccc(Cl)cc1)C(=O)NCC(c1ccc2c(c1)OCO2)N1CCOCC1 (stereo unspecified)
Cc1cc(F)ccc1NC(=O)CCS(=O)(=O)c1cc2c3c(c1)CCN3C(=O)CC2
O=C(c1ccccc1)N1CCC(c2nc3ccccc3o2)CC1
COc1ccc(/C=C/C(=O)Nc2cc(-c3nc4ccccc4o3)ccc2OC)cc1
CC(=O)c1ccc(NC(=O)CSc2nnc(-c3ccncc3)n2-c2ccccc2)cc1
CCS(=O)(=O)N1CC(=O)N(c2cc(C)cc(C)c2)C(C)(C(=O)NC2CCCCC2)C1 (stereo unspecified)
Cc1ccc2c(c1)N(C(=O)Nc1ccc(Br)cc1F)CCO2
COC(=O)c1ccc(NS(=O)(=O)c2ccc3c(c2)n(C)c(=O)c(=O)n3C)cc1
COc1ccc(S(=O)(=O)c2cc3cc(C(C)(C)C)cc(O)c3oc2=O)cc1
O=C(c1ccc2c(c1)N(Cc1cccc(Cl)c1)C(=O)c1ccccc1S2(=O)=O)N1CCc2ccccc21
CCNC(=O)CC1C(=O)N(c2ccc(F)cc2)C(=O)N1Cc1ccc(OC)c(OC)c1 (stereo unspecified)
Cc1cc(NC(=O)c2ccc(-c3ccc(Cl)cc3)o2)cc(-c2nc3ncccc3o2)c1O
CCOc1ccccc1NC(=O)CC1C(=O)NCCN1C(=O)c1ccc(F)cc1 (stereo unspecified)
COc1ccc(COC(=O)c2[nH]c3c(c2C)C(=O)CC(c2ccc(OC)c(OC)c2)C3)cc1 (stereo unspecified)
